# The campaign covered roughly 50,000 compounds. About 800 (1.6%) showed an effect of 50% or more. This is one part of the list.
# Target: Bcl-2-like protein 10 (Homo sapiens) (UniProt Q9HD36)
# Assay: TR3 peptide-Bcl-B binding displacers, biochemical primary FP assay, phenotype converters (AID 1240);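 further: 0% = Bcl-B with tracer peptide and DMSO and 100% = tracer peptide lacking Bcl-B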
# Conditions: GST-Bcl-B / FITC-TR3 peptide fluorescence polarization; stronger effect = higher value; compound at 3.75 mg/L
# Chain of UniProt Q9HD36 (Q9HD36 whole entry, looked up): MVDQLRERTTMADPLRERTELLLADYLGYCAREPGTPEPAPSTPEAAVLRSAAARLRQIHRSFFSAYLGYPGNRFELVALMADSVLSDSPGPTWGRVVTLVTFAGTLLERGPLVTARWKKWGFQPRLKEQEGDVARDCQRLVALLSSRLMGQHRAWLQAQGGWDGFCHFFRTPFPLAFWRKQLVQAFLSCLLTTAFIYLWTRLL
row,Structure (SMILES),displacement [%]
1,COCCOC(=O)c1c(C)oc2ccc(OC)cc12,5.9
2,COCCOC(=O)c1ccc(NC(=O)COc2ccc(Cl)cc2Cl)cc1,-2.3
3,O=C1Nc2ccc(Br)cc2C(c2ccccc2Cl)=N/C1=C/c1ccoc1,8.2
4,Cc1ccc(Nc2cc(-n3cccn3)ncn2)cc1,12
5,COc1cccc(OCCOc2ccccc2)c1,-2.3
6,CS(=O)(=O)N(CC(=O)Nc1ccccc1)c1ccc(Oc2ccccc2)cc1,2.8
7,CCOc1cc(C2NC(=S)NC(C)=C2C(=O)OC(C)C)ccc1O (stereo unspecified),8.3
8,CCOc1ccccc1CN1CCN(Cc2cc(Br)ccc2O)CC1,-13
9,CCCCN(CCCC)CC(O)COc1ccccc1C(=O)Nc1ccccc1 (stereo unspecified),8.2
10,CC(=O)Nc1ccc(N2CCOCC2)cc1,8.8
11,CC(=O)N(C1=C(Cl)C(=O)c2ccccc2C1=O)c1ccc(Br)cc1,22.1
12,CC(C)(C#CCN1CCCC1)OCCC#N,-18.2
13,CC(C)Sc1nc2ccc(N3C(=O)C4CCCCC4C3=O)cc2s1 (stereo unspecified),-3.5
14,CCOc1ccc(N(CC(=O)N2CCN(c3ccccc3)CC2)S(C)(=O)=O)cc1,2.6
15,Cc1ccc(/C=C/C(=O)NCCCN2CCOCC2)o1,-3
16,CCc1ccc(NC2=C(Cl)C(=O)N(c3ccc(Br)cc3)C2=O)cc1,7.4
17,CCc1ccc(NC(=O)COc2ccc(C)cc2)cc1,10.2
18,O=C1CC(CSc2nnc(-c3ccc(Cl)cc3)n2-c2ccccc2)=NN1,-7.5
19,CCc1ccccc1NC(=O)c1c(NC(=O)Cc2ccccc2)sc(-c2ccccc2)c1C,8
20,COc1ccc(C2(CNC(=O)C3COc4ccccc4O3)CCCC2)cc1OC (stereo unspecified),8.7
21,COC(=O)C1=C(C)N(c2ccc(OC)cc2)C(C)=C(C(=O)OC)C1c1ccc(OC)cc1,-5.4
22,O=C(Nc1ccc(O)c(-c2nc3cc(Cl)ccc3o2)c1)c1ccccc1,-50.3
23,CNC(=O)CN(c1cccc([N+](=O)[O-])c1)S(=O)(=O)c1ccccc1,-3.8
24,Cc1ccc(N2C(=O)NC(=O)/C(=C\c3cc(Cl)c(OCC(=O)O)c(Cl)c3)C2=O)cc1,-11.9

row,Structure (SMILES),displacement [%]
1,COc1ccc(C(=O)CSc2ncn[nH]2)cc1,13.6
2,Cc1ccc(/C(O)=C/c2nc3ccc([N+](=O)[O-])cc3oc2=O)o1,-6.6
3,CCOc1ccc(C(=O)NC(C)(C)C)cc1[N+](=O)[O-],6.5
4,CCOC(=O)C1=C(O)/C(=C\c2ccc3c(c2)OCO3)SC1=Nc1ccccc1,-18.2
5,CCc1ccc(-c2nc3cc(NC(=O)COc4ccc([N+](=O)[O-])cc4)ccc3o2)cc1,-6.4
6,COc1ccc(Cl)cc1N(CC(=O)NCc1ccncc1)S(=O)(=O)c1ccc(C)cc1,-4.1
7,Cc1ccc(-c2csc(NC(=O)c3ccc([N+](=O)[O-])s3)n2)c(C)c1,12.6
8,Cc1cccc(NCN2C(=O)C3CCCCC3C2=O)c1 (stereo unspecified),9.8
9,N#CCC(=O)N/N=C/c1ccc(O)cc1O,15.2
10,CC(=O)n1cnc2c(c1=O)C1(CCCC1)Cc1ccccc1-2,6.2
11,CC1(c2ccccc2)CC(C)(C)N(C(=O)CSc2nnc(N)s2)c2ccccc21 (stereo unspecified),12.3
12,CC(=O)Nc1cc([N+](=O)[O-])ccc1Nc1ccccc1,1.3
13,Cc1ccc(/C(O)=C2/C(=O)C(=O)N(CCCCCC(=O)O)C2c2ccc(F)cc2)cc1 (stereo unspecified),-12.3
14,Cc1ccc(NCC(=O)N/N=C\c2ccccc2OCC(=O)O)cc1,3.3
15,CN(C(=O)C(c1ccccc1)c1ccccc1)c1ccccc1,11.8
16,Cc1ccccc1NC(=O)CSc1cc(Cl)ccc1Cl,17.5
17,Cc1ccc(N2C(=O)NC(=O)/C(=C/c3ccc(-c4ccc(F)cc4)o3)C2=O)cc1,40.5
18,COc1ccc(C=C2C(=O)N(c3ccc(C)cc3)C(=S)N(c3ccc(C)cc3)C2=O)cc1C(=O)O,15
19,O=C(c1ccccc1Br)N1CCCCC1CO (stereo unspecified),-8
20,CN(C)CCC(=O)c1ccc2c(c1)OCO2,-2.9
21,CC(C)(C)c1csc(NC(=O)c2cccnc2)n1,6.5
22,COc1ccccc1N1CCN(C(=O)Cc2ccc(Cl)cc2)CC1,-3.1
23,CC1=C(C(=O)OCc2ccccc2)C(c2cccc(Br)c2)C2=C(CC(C)(C)CC2=O)N1 (stereo unspecified),5.2
24,Clc1ccc(OCCOCCN2CCCCC2)c2ccccc12,7.3

row,Structure (SMILES),displacement [%]
1,O=C(O)CCC(=O)Nc1ccc(-c2nc3cc4ccccc4cc3[nH]2)cc1,-3.2
2,C=CCOc1ccc(/C=C/C(=O)c2cccc(Br)c2)cc1,0.7
3,Cc1nccn1CC(=O)N1c2ccccc2Sc2ccccc21,9.9
4,O=[N+]([O-])c1ccc(N2CCN(S(=O)(=O)c3ccccc3)CC2)cc1Sc1cccc2cccnc12,9.7
5,Cc1ccc(N2C(=O)NC(=O)/C(=C\c3cc(Cl)c(O)c(Cl)c3)C2=O)cc1,-7.8
6,COC(=O)c1ccc(/C=C2\C(=O)NC(=O)N(c3ccc(Cl)cc3)C2=O)cc1,9.5
7,COc1cccc(N2C(=O)c3cccc4cccc(c34)C2=O)c1,11
8,O=C1CCC(C(=O)O)(c2ccccc2)N1c1ccccc1 (stereo unspecified),0.2
9,CCc1ccc(NC(=O)c2c(-c3c(Cl)cccc3Cl)noc2C)cc1,12
10,C/C(=N\Nc1cc(-c2ccccc2)nc(C)n1)c1ccc(N)cc1,-9
11,O=C(CN(c1ccccc1)S(=O)(=O)c1ccccc1[N+](=O)[O-])Nc1ccc(Br)cc1,-1.3
12,O=C1NC(=S)N(c2ccc(Br)cc2)C(=O)/C1=C/c1ccc(N2CCOCC2)o1,11.2
13,CC(C)(C)c1csc(N/N=C\c2ccccc2)n1,-3.8
14,Cc1cc(Cl)c(OCCN2CCOCC2)c(Cl)c1,0.8
15,Nc1nc(Oc2ccc(F)cc2)c(I)c(=O)[nH]1,-4.8
16,O=C(O)CCN1C(=O)/C(=C/c2cn(-c3ccccc3)nc2-c2ccc(Br)cc2)SC1=S,20.5
17,COc1ccc(CC(=O)Nc2ccc(-c3nc4ccccc4o3)c(O)c2)cc1OC,33.1
18,CCn1ccnc1C(O)c1cccc(OC)c1OC (stereo unspecified),-1.3
19,CCOC(=O)c1c(-c2ccc(-c3ccccc3)cc2)csc1NC(=O)c1ccco1,16.8
20,CCC(=O)Oc1cc2oc(=O)c(CC)c(C)c2cc1CC,10.1
21,COc1cc(/C=N\n2nnnc2N)ccc1OCc1ccc(F)cc1,10.6
22,CCOc1ccc2c(C)cc(=O)oc2c1C,-1.1
23,O=C(c1ccncc1)N1CCN(Cc2cccc(Oc3ccccc3)c2)CC1,-7.2
